{"source": "the supplement of paper PMC11417369", "note": "± gives the standard deviation of the averaged measurements. The list shows a part of the results."}
{"system": "PfAP2-G AP2 domain (GST-tagged)", "experiment": "gcPBM binding intensity (ln(normalized median fluorescence intensity)); higher = stronger DNA binding", "procedure,_shortened": "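Alexa488 anti-GST antibody, scanned at 488 nm, detected GST-tagged P. falciparum DNA-binding domains that had been expressed in E. coli and incubated for 1 h on an Agilent 4 × 180k array. The array carried primer-extended double-stranded 36-bp intergenic genomic probes and negative controls. Binding intensity is the highest Masliner-normalised natural-log median intensity across replicate spots of either orientation of each probe.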"}
{"sequence": "TATCTTCAATGTGAAAGTACTTAAATTGTTATAAAA [XGTACX_site2586]", "gcPBM binding intensity (ln)": "11.3 ± 0.79"}
{"sequence": "ATTTAATGTATTTTGCGTACGAATTATTTTATTTCA [XGTACX_site7331]", "gcPBM binding intensity (ln)": "11.2 ± 0.61"}
{"sequence": "GAAATTAAATGACATACACACTATATTATATATTTT [CACACA_site5693]", "gcPBM binding intensity (ln)": "9.85 ± 0.15"}
{"sequence": "TAGATAGATTAAAATACATGCATATTATTAAAAAAT [TGCATGCA_site739]", "gcPBM binding intensity (ln)": "9.62 ± 0.071"}
{"sequence": "CACCCATACACATACAAACACACATTCTATATATAT [CACACA_site1600]", "gcPBM binding intensity (ln)": "10.2 ± 0.18"}
{"sequence": "TATATATATATATATGTGCACATATTTATATGTTTT", "gcPBM binding intensity (ln)": "10.2 ± 0.22"}
{"sequence": "TGGAATAAAAAAAGGAGTACAATTAATTATTCTTAA [XGTACX_site8299]", "gcPBM binding intensity (ln)": "11.8 ± 1.3"}
{"sequence": "TATTTATAAATTTACACACACACATGTGAACATAAA [CACACA_site1909]", "gcPBM binding intensity (ln)": "10.2 ± 0.14"}
{"sequence": "ATTTTAAAAAATTAATGTACTTAATTAATACTGAAA [XGTACX_site7702]", "gcPBM binding intensity (ln)": "11.1 ± 0.93"}
{"sequence": "AAAAAAAAAACAAATGCATGTAATATAAGAATTACA [TGCATGCA_site908]", "gcPBM binding intensity (ln)": "9.64 ± 0.33"}
{"sequence": "ACTTATAATATTTAGTGTACATATTGTGACTAATAC [XGTACX_site1508]", "gcPBM binding intensity (ln)": "11.4 ± 0.69"}
{"sequence": "TATCAAAAAAAAAGTAGTACGATAATAGTTTCCCAA [XGTACX_site1812]", "gcPBM binding intensity (ln)": "11.4 ± 0.79"}
{"sequence": "AAAAACAATCATTTTAAATAAAAATCTCTAATTTAA [GTGCAC_negctrl_site138]", "gcPBM binding intensity (ln)": "9.61 ± 0.22"}
{"sequence": "ATTTGTTCATTTGGTTGTACATAATTTATTTTTATA [XGTACX_site785]", "gcPBM binding intensity (ln)": "11.2 ± 0.69"}
{"sequence": "TTTTCATTTTTTTTTTTTTTTTTTTTTCTTTTTTTT [CACACA_negctrl_site1312]", "gcPBM binding intensity (ln)": "9.52 ± 0.099"}
{"sequence": "ATTTCTTTAATATACACACACCAAAACAAAAAAAAA [CACACA_site6416]", "gcPBM binding intensity (ln)": "10.3 ± 0.29"}
{"sequence": "GTTGTGTAATTCGTAACACACATAAAATATATATAA [CACACA_site6059]", "gcPBM binding intensity (ln)": "10.2 ± 0.26"}
{"sequence": "TTTTTAAAATATTTAACACACAATTTTAATGCATAA [CACACA_site6036]", "gcPBM binding intensity (ln)": "10.1 ± 0.26"}
{"sequence": "AAAAAAATAAAACACACACACAAAAAAATAAAAATA [CACACA_site465]", "gcPBM binding intensity (ln)": "9.995 ± 0.007"}
{"sequence": "ATATAGTTCGATATAGTTAGTATGAATTGAAAAATA [CACACA_negctrl_site1826]", "gcPBM binding intensity (ln)": "9.85 ± 0.042"}
{"sequence": "ATGTGATAATTTAATAGTACATAACAGTTTAACAAT [XGTACX_site5854]", "gcPBM binding intensity (ln)": "11.1 ± 0.52"}
{"sequence": "TCATAGCACAAAAAATGTACTTATTATTTAATATTT [XGTACX_site5687]", "gcPBM binding intensity (ln)": "11.1 ± 0.71"}
{"sequence": "GTTTCCTTAATATTCACACACATATCTATAATATAT [CACACA_site6959]", "gcPBM binding intensity (ln)": "10.06 ± 0.014"}
{"sequence": "ATAATAATTATATCAGTGCGCATATATATTTATTTA", "gcPBM binding intensity (ln)": "9.93 ± 0.085"}
{"sequence": "TTATAATAAATATTTATTATATATAATATATATTAC [CACACA_negctrl_site1802]", "gcPBM binding intensity (ln)": "9.685 ± 0.007"}
{"sequence": "TTTTTTATTAAATATATATAATAATAATAATTTGTA [CACACA_negctrl_site1719]", "gcPBM binding intensity (ln)": "9.54 ± 0.11"}
{"sequence": "TTTGTTTTATGTGGTTGTACACAAATACAATTTAAA [XGTACX_site5156]", "gcPBM binding intensity (ln)": "11.6 ± 1.1"}
{"sequence": "TTTATATGCAATTAAGTGCATAAGAAAAAAAAAGGA [GTGCAC_site9966]", "gcPBM binding intensity (ln)": "10.1 ± 0.22"}
{"sequence": "CAAACAAATTGTGAAACACACATATTTATATTTATA [CACACA_site7030]", "gcPBM binding intensity (ln)": "9.76 ± 0.071"}
{"sequence": "TTATAAAATAAACTTACACACATGAAATATTATAGT [CACACA_site7000]", "gcPBM binding intensity (ln)": "10.1 ± 0.13"}
{"sequence": "CCTTACCAAATAATATGTACACATTTAATGTTATAT [XGTACX_site7840]", "gcPBM binding intensity (ln)": "11.5 ± 0.71"}
{"sequence": "TATTATATATTATATAGTACATATTTATGTAAGAGG [XGTACX_site3099]", "gcPBM binding intensity (ln)": "10.9 ± 0.73"}
{"sequence": "ATTTAATAACGGCATGCATGTCCTTATATAAATTTA [TGCATGCA_site1012]", "gcPBM binding intensity (ln)": "10.4 ± 0.28"}
{"sequence": "TGAATTGTAATTTATAATATACGTGGTTTCTACTTA [CACACA_negctrl_site559]", "gcPBM binding intensity (ln)": "9.98 ± 0.26"}
{"sequence": "CAAAAATAAATATAAACACACAATAAATAAATAAAT [CACACA_site891]", "gcPBM binding intensity (ln)": "9.74 ± 0.057"}
{"sequence": "TATCAGTATACAACAACACACATAATGTTTGTCATC [CACACA_site2980]", "gcPBM binding intensity (ln)": "9.96 ± 0.057"}
{"sequence": "CACTTAAAAAAAATACGTACACATATATATATATAT [XGTACX_site2054]", "gcPBM binding intensity (ln)": "11.5 ± 0.87"}
{"sequence": "GTATTAATTTATATATGTACATATGTGATATATATA [XGTACX_site5825]", "gcPBM binding intensity (ln)": "11 ± 0.54"}
{"sequence": "ATGGTATCTTTTAGAAGTACATCATGATAATAATTT [XGTACX_site5544]", "gcPBM binding intensity (ln)": "11.7 ± 0.91"}
{"sequence": "GATCATAATATTTAAAAGAATATATATAAAAAGGAA [XGTACX_negctrl_site310]", "gcPBM binding intensity (ln)": "9.77 ± 0.23"}
{"sequence": "TATAAAAATATATGCACACAAATAAAAAATTATATA [CACACA_site3629]", "gcPBM binding intensity (ln)": "9.99 ± 0.22"}
{"sequence": "TATATTTATACAATATGTACATATTATATATATATA [XGTACX_site3098]", "gcPBM binding intensity (ln)": "11 ± 0.59"}
{"sequence": "CAAAATTAATAAGTCACACACACATATATAATATAT [CACACA_site798]", "gcPBM binding intensity (ln)": "10.12 ± 0.035"}
{"sequence": "AAAAATAGGAACCAATATCCAACGTGACTTTATAAT [CACACA_negctrl_site1011]", "gcPBM binding intensity (ln)": "10.3 ± 0.18"}
{"sequence": "ATTTTTTTTTTTTTTTTTTTTTTTTTTTGATTTGTG [CACACA_negctrl_site1391]", "gcPBM binding intensity (ln)": 9.88}
{"sequence": "TCTACAATTATAATTACACACTATAAAAAAGAAAGA [CACACA_site2984]", "gcPBM binding intensity (ln)": "10 ± 0.18"}
{"sequence": "AAAAAATTTTTAAGCACACACATAGATAATATATAT [CACACA_site1555]", "gcPBM binding intensity (ln)": "10.2 ± 0.014"}
{"sequence": "GGAAAAAAAAAAAAAAAACACACGGTACATTCAAAC [CACACA_site2715]", "gcPBM binding intensity (ln)": "10.5 ± 0.23"}
{"sequence": "AAAATAATTATGAATTGTACAGGTTTTTTTTTTTTT [XGTACX_site220]", "gcPBM binding intensity (ln)": "10.8 ± 0.48"}
{"sequence": "AAAATTTTTCTTAAAGCATGCACAATTAAGAAGACG [TGCATGCA_site883]", "gcPBM binding intensity (ln)": "10.2 ± 0.13"}
{"sequence": "TTTTTTTTAAGAGATAGTACATAAATATTATAATAT [XGTACX_site4685]", "gcPBM binding intensity (ln)": "11.1 ± 0.86"}
{"sequence": "TTAAAATTAATTCACCAGTATTAAAATAAAAACGAA [CACACA_negctrl_site1428]", "gcPBM binding intensity (ln)": "10.1 ± 0.24"}
{"sequence": "AAATAAAATTTTATGTGTACGCAAAAAGTTGTAAGC [XGTACX_site8911]", "gcPBM binding intensity (ln)": "11.9 ± 1.3"}
{"sequence": "ATGGTTTAGTTATATACACACTCGAAAATAACGACA [CACACA_site7520]", "gcPBM binding intensity (ln)": "10.2 ± 0.19"}
{"sequence": "TATAAAAATATATTTACACACTATATATATCGAAAG [CACACA_site1700]", "gcPBM binding intensity (ln)": "9.92 ± 0.057"}
{"sequence": "ATATATTTTCAAAAAAGTAAATCAAAATAAATATAT [TGCATGCA_negctrl_site319]", "gcPBM binding intensity (ln)": "9.84 ± 0.085"}
